From paper PMC4336329 (PLoS ONE, 2015)
Among all 310,000 compounds or so, about 14,000 (4.5%) showed an effect of 50% or more. The effect is printed as a negative number. This is one part of the list.

These molecules were tested against human ether-à-go-go-related gene (hERG) potassium channel (human, UniProt Q12809) (assay: primary screen, population patch clamp on CHO cells stably expressing hERG).
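Also: peak tail current of the secondary pulse compared with the same well before compound.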

Chain of human ether-à-go-go-related gene (hERG) potassium channel (Q12809 whole entry, looked up): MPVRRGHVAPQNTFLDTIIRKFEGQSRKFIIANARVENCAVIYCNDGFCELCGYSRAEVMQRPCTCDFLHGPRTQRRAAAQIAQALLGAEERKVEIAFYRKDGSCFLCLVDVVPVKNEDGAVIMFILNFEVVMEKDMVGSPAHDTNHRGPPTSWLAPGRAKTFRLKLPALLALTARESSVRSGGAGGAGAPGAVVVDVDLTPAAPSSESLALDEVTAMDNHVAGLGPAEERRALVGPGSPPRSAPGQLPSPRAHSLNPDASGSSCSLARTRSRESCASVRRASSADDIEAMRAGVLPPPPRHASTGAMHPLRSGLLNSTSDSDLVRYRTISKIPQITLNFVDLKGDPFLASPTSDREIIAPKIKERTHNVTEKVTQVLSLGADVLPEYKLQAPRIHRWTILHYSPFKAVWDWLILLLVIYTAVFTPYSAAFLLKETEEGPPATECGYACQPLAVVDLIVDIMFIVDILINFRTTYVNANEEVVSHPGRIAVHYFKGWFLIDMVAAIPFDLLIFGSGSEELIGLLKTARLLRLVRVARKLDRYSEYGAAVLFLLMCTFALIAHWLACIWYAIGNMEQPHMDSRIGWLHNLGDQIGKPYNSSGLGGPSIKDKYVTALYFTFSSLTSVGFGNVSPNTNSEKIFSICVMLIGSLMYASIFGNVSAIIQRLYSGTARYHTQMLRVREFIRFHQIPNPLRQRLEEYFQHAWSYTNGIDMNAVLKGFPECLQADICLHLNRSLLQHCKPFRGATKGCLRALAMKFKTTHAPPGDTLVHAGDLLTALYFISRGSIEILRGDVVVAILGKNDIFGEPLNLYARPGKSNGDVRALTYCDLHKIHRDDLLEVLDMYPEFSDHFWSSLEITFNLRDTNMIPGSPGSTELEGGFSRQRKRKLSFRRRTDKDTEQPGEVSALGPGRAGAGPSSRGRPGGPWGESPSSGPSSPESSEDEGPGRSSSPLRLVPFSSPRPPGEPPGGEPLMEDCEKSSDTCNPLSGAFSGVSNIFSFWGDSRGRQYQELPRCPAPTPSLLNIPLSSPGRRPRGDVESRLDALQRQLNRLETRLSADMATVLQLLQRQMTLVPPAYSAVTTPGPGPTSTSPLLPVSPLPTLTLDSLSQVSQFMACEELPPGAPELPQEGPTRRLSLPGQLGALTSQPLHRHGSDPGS

| Structure (SMILES) | hERG current change (%, negative = inhibition) at 10uM |
| --- | --- |
| N#CCCN(CCN1CCCC1)S(=O)(=O)c1ccc(-c2ccc([N+](=O)[O-])cc2)cc1 | -79.1% |
| O=C(NCc1ccccc1Br)c1ccco1 | 8.96% |
| O=C(CCCc1ccccc1)N1CCN(C2CCCCC2)CC1 | -70.8% |
| CCOc1ccc(-c2nc(N)nc(C)c2-c2ccc(Cl)cc2)c(O)c1 | -0.459% |
| Cc1cc(O)c(C=Nc2ccc(Cl)cn2)c(=O)o1 | 14.5% |
| CCOC(=O)CNC(=O)c1cn(CC)c(=O)c2cc(OC)c(OC)cc12 | 15.2% |
| COc1ccc(S(=O)(=O)N2CCOC2CNC(=O)C(=O)NCCN2CCOCC2)cc1C (stereo not drawn) | 15.8% |
| O=C(CNc1ccc2ccccc2c1)N/N=C/c1ccccn1 | 4.04% |
| CC1CC(C)CN(C(=O)c2cccc(S(=O)(=O)Nc3cc(C(F)(F)F)ccc3Cl)c2)C1 (stereo not drawn) | -11.4% |
| CC(=O)c1ccc(S(=O)(=O)Nc2ccc(N3CCOCC3)cc2)cc1 | -8.77% |
| O=C(NNc1ccc(F)cc1)c1c(F)cccc1Cl | 9.01% |
| COc1ccccc1N1CCN(C(=O)C2CCCN(c3ncnc4c3nc3n4CCCCC3)C2)CC1 (stereo not drawn) | -12.5% |
| O=C(/C=C/c1ccccc1)N(c1ccccn1)C1CCCCC1 | -19.3% |
| Cc1ccc(N2CCN(/N=C/c3sccc3C)CC2)cc1 | -7.68% |
| CC(C)(C)c1ccc(/C=C2\Oc3c(ccc(O)c3CN3CCN(CCO)CC3)C2=O)cc1 | -31% |
| O=[N+]([O-])c1ccccc1S(=O)(=O)Nc1ccc(S(=O)(=O)N2CCOCC2)cc1 | 14.7% |
| Cc1cc(C)n2c3c(c(C#N)c2n1)CCCC3 | 6.93% |
| Nc1c(C=C2C=CC(=O)C=C2)c(=O)nc2snc(SCc3ccccc3)n12 | 8.76% |
| Cc1nnc(SCC(=O)Nc2nc(C(C)(C)C)cs2)s1 | -10.2% |
| CCOc1ccc(S(=O)(=O)n2cc(F)c(=O)[nH]c2=O)cc1[N+](=O)[O-] | 17.4% |
| CC(C)(C)n1ncc2c(=O)n(CC(=O)NCc3ccccc3Cl)cnc21 | 9.04% |
| CCc1ccc(NC(=O)C[n+]2cc(-c3ccc(C)cc3)n3c2CCC3)cc1.[Cl-] | -63.1% |

| Structure (SMILES) | hERG current change (%, negative = inhibition) at 10uM |
| --- | --- |
| Cc1cccc(NC(=O)COC(=O)c2ccc3c(=O)n4c(nc3c2)CCC4)c1 | -5.96% |
| CCOC(=O)c1cnc(-n2nc(C)cc2C)nc1N(CC)CC | -12.7% |
| CN(C)c1cccc(C(=O)n2cc(C(=O)c3cc(F)ccc3O)cn2)c1 | 15.2% |
| COCCNc1oc(-c2ccc(C)cc2)nc1C#N | 8.26% |
| CCCCCCCC(=O)NNC(=O)c1ccc(F)cc1 | -18.2% |
| COc1ccc([C@@H]2[C@@H]3C(=O)N(C(C)(C)C)C(=O)[C@@H]3[C@]3(Cc4ccccc4)C(=O)N(c4ccccc4)C(=O)N23)cc1 | 0.303% |
| COc1ccc(CN(CC(=O)NCC2CCCO2)C(=O)CNS(=O)(=O)c2ccc(C)cc2)cc1 (stereo not drawn) | -2.26% |
| CCOC(=O)c1cccc2c(=O)c(C(=O)c3ccc(Cl)cc3)c(C(=O)OC)[nH]c12 | 5.07% |
| Cc1ccc2c(c1)C1CN(C)CCC1N2C(=S)Nc1ccc(OC(F)F)cc1 (stereo not drawn) | -55.1% |
| COc1ccc(CCN(C)CCC(=O)Nc2cc(C)ccc2C)cc1OC | -55.6% |
| CCN1C(=O)C(CC(=O)Nc2ccc(OC)cc2)N(Cc2ccc(OC)c(OC)c2)C1=S (stereo not drawn) | -14.4% |
| Cc1ccc(C(=O)c2c[nH]c3c(F)cc(F)cc3c2=O)cc1 | 1.03% |
| N#Cc1ccc(Cl)cc1NC(=O)COC(=O)[C@H](CCC(N)=O)NC(=O)c1ccc(F)cc1 | 1.75% |
| COc1ccc(/C=C/c2c([N+](=O)[O-])c(=O)n(C)c(=O)n2C)c(OC)c1 | 3.51% |
| Cc1ccc(Cn2nnc(C(=O)Nc3cccc(C)c3C)c2N)cc1 | 1.41% |
| COc1ccc(C2CC(=O)C3=C(C2)Nc2ccccc2N(C(=O)CCC(=O)O)C3c2ccc(F)cc2)cc1 (stereo not drawn) | 2.56% |
| Cc1cccc(CS(=O)(=O)Cc2ccc(C(=O)NCc3cccs3)o2)c1 | -38.8% |
| Fc1ccc2nc3[nH]c4ccccc4c3nc2c1 | 11.1% |
| O=S(=O)(c1ccc(N2CCN(S(=O)(=O)c3ccccc3)CC2)nc1)N1CCCC1 | 9.03% |
| Cc1ccc(S(=O)(=O)C2(S(=O)(=O)c3ccc(C)cc3)CCCC2)cc1 | -23.9% |
| Cc1cccnc1NC(=O)Nc1ccccc1 | 1.64% |
| Cc1nc(N)nc(COc2ccccc2)n1 | 16.6% |

| Structure (SMILES) | hERG current change (%, negative = inhibition) at 10uM |
| --- | --- |
| CCOC(=O)COn1c(=O)c(-c2ccccc2)[n+]([O-])c2ccccc21 | 3.61% |
| Cc1ccccc1OCC(=O)OC1CCN(C)CC1.Cl | 2.02% |
| Cc1ccnc(NC(=O)CN(C)S(=O)(=O)c2cccc3nsnc23)c1 | 7.8% |
| CC(C)C(=O)N1CC(=O)Nc2ccc(F)cc2C1c1ccc(F)cc1 (stereo not drawn) | -2.87% |
| O=C(NCCNC(=O)c1cnccn1)c1ccc(Cl)cc1 | -5.33% |
| CCCn1cccc(C(=O)Nc2ccc(OC)cc2)c1=O | -22.5% |
| COc1ccc(NC(=O)CN2CCC(C)CC2)c([N+](=O)[O-])c1 | -12.6% |
| CCc1ccc(C2=C/C(=C/c3cccnc3)C(=O)O2)cc1 | 3.06% |
| COC(=O)C1=C(C)NC2=C(C(=O)CCC2)C1c1coc2ccccc2c1=O (stereo not drawn) | 1.35% |
| COc1cccc(C(=O)CSc2nnc(-c3cccs3)o2)c1 | -3.51% |
| Cc1ccccc1NC(=O)Nc1nnc(Cc2ccc([N+](=O)[O-])cc2)s1 | 2% |
| O=C(CN1C(=O)NC2(CCCC2)C1=O)OCc1c(F)cccc1Cl | 6.15% |
| Cc1ccc(-c2noc(-c3ccccc3F)n2)cc1 | 16.4% |
| CCCCN1C2CCCC1CC(NC(=O)c1cccc(Cl)c1)C2 (stereo not drawn) | -75.5% |
| O=C(CSc1ccc2nnc(-c3ccccn3)n2n1)Nc1ccccc1C(F)(F)F | -23.9% |
| O=C(c1ccc(F)c([N+](=O)[O-])c1)N1CC2CC(C1)c1cccc(=O)n1C2 (stereo not drawn) | 0.448% |
| CCN(CC)C(=O)N1CCN(S(=O)(=O)c2ccc(C)cc2)CC1 | -13.5% |
| C=CCNC(=O)c1c[nH]c2ccc(S(=O)(=O)N(C)c3ccc(OCC)cc3)cc2c1=O | 12.9% |
| CC(C)N(CCNC(=O)C1CCCN(c2ncnc3c2nc2n3CCCCC2)C1)Cc1ccccc1 (stereo not drawn) | -37.3% |
| O=C(O)CCN1C(=O)c2ccc(NC(=O)CSc3ccc(Cl)cc3)cc2C1=O | 21% |
| CC(C)[C@H]1CN(C)CCN1Cc1cn(C)nc1-c1cccc(Cl)c1 | -27% |
| O=[N+]([O-])c1ccc(N2CCOCC2)c(S(=O)(=O)N2CCOCC2)c1 | -20% |

| Structure (SMILES) | hERG current change (%, negative = inhibition) at 10uM |
| --- | --- |
| O=C1N/C(=N/N=C/c2ccccc2O)SC1Cc1ccc(F)cc1 (stereo not drawn) | 19.6% |
| Cc1cn(S(=O)(=O)c2ccc(Cl)cc2)c(C)n1 | -21.8% |
| Cc1noc(C)c1CSc1nnc(-c2ccccc2)o1 | 7.8% |
| CCOC(=O)c1[nH]c(C)c(C(=O)OCc2c(C)noc2C)c1C | -4.38% |
| O=S(=O)(c1ccc(OCC(O)CNC23CC4CC(CC(C4)C2)C3)c(Cl)c1)N1CCOCC1 (stereo not drawn) | 5.97% |
| O=C(NCC(=O)N1CCCCCCC1)c1ccc(Cl)cc1 | 1.14% |
| O=Cc1ccc(-c2ccccc2C(=O)O)o1 | 15.5% |
| Cc1[nH]c2ccccc2c1-c1csc(NC(=O)CSCC(=O)O)n1 | -1.46% |
| Cc1cc(=O)[nH]c(N/N=C/c2ccc([N+](=O)[O-])cc2)n1 | 3.44% |
| O=C(Oc1cccc(/C=N/NC(=O)c2ccccn2)c1)c1ccc([N+](=O)[O-])cc1 | 21.5% |
| CCOC(=O)[C@H]1[C@H]2COc3ccc(OC)cc3[C@@H]2N2C(=O)c3ccc(Cl)cc3NC(=O)[C@@]12C | -28.5% |
| CCC(Cc1ccccc1)NC(=O)C1=C(C)C(=O)OC12CCC(C)CC2 (stereo not drawn) | 3.74% |
| O=C1Cc2ccccc2C(c2ccc(Cl)cc2Cl)N1 (stereo not drawn) | -14.1% |
| COc1ccccc1NC(=O)CCS(=O)(=O)c1ccc2c(c1)NC(=O)C(C)S2 (stereo not drawn) | -4.76% |
| CCCN1C(=O)C(O)(C/C(C)=N/O)c2ccccc21 (stereo not drawn) | 9.14% |
| O=C(COc1ccccc1C(=O)NCc1ccccc1)Nc1ccccc1 | -15% |
| CC(C)=CC(=O)OCC(=O)Nc1ccc(Cl)cn1 | 13.5% |
| COc1cc2c(cc1OC)C(C(=O)N1CCC3(CC1)OCCO3)C(c1ccccc1F)N(C)C2=O (stereo not drawn) | 7.45% |
| O=c1[nH]oc(O)c1-c1ncc(C(F)(F)F)cc1Cl | 3.92% |
| CC(=O)NCC(=O)OCC(=O)Nc1nc(-c2ccccc2)cs1 | 30.4% |
| CS(=O)(=O)N(CC(=O)NCc1ccco1)c1ccc(OCc2ccccc2)cc1 | -0.371% |
